Some of the results follow.
What follows are compounds tested on T1, C. trachomatis L2/434/Bu expressing GFP (CTL2-GFP). Conditions: total inclusion area; 28.5 h, 10 µM; inhibitor.
T1 construct: L2/434/Bu GFP intracellular growth in HeLa cells
Design: species or system HeLa; C. trachomatis total inclusion area by high-content imaging, normalised to DMSO
How it was run: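 Bulk GFP and resorufin signals were read first. Wells were then fixed, stained with Hoechst and imaged to detect GFP inclusions and host nuclei. MICs followed the previously described calculation.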
`COCCCOc1cc(NC(C)C)ncn1` [CBK115885] was tested, and the “% of control remaining” value was 74.8504.
With `CNc1cc(N2CCN(S(=O)(=O)c3ccc(C)cc3)CC2)ccc1[N+](=O)[O-]` [CBK266005] the “% of control remaining” value was 81.2843.
In the case of `CCCc1c(C(=O)NC2CC2)cnn1-c1ccc(Cl)cc1` [CBK006334], the “% of control remaining” value is reported as 123.378.
For `O=C(O)C1CCN(Cc2cnnn2-c2ccccc2F)CC1` [CBK287197], the “% of control remaining” value was 96.489.
For `COc1ccccc1CN(CCCn1ccnc1)Cc1ccoc1` [CBK283123], the “% of control remaining” value was 98.6491.
`Cc1cccc(C(C)CNC(=O)N2CCC(Cc3cnn(C)c3)C2)c1` (stereo not shown) [CBK305301] was tested, and the “% of control remaining” value was 79.8647.
`CCn1cc(-c2cncn2CCCn2nc(C)cc2C)cn1` [CBK281770] was tested, and the “% of control remaining” value was 88.2342.
For `CCC(C)NC1=NC(=O)C(CC(=O)N(C)c2ccccc2)S1` (stereo not shown) [CBK059110T], the “% of control remaining” value was 90.1648.
With `CCN(CC)C(=O)c1[nH]c2ccccc2c1NS(=O)(=O)c1c(C)noc1C` [CBK050117] the “% of control remaining” value was 102.028.
For `Cc1cc(C)n(-c2nc(NC(C)(C)C)nc(N3CCOCC3)n2)n1` [CBK269810], the “% of control remaining” value was 92.0018.
In the case of `COc1ccc2[nH]c([C@H]3CCN(S(C)(=O)=O)C3)nc2c1` [CBK289377], the “% of control remaining” value is reported as 114.737.
In the case of `CC(C)(C)c1cc(NC(=O)CN2CCN(c3cccc(Cl)c3)CC2)on1` [CBK304525], the “% of control remaining” value is reported as 48.6953.
In the case of `O=C(N[C@H]1C[C@H]2C(=O)Nc3ccccc3C(=O)N2C1)c1cccnc1` [CBK289356], the “% of control remaining” value is reported as 82.6105.
For `COc1ccc(CSCC(N)C(=O)O)cc1Br` (stereo not shown) [CBK264026], the “% of control remaining” value was 98.1737.
In the case of `CC(C)c1nc(NCc2nnc3n2CCC3)nc(N(C)C)n1` [CBK305117], the “% of control remaining” value is reported as 29.7657.
`CCCOc1ccc(S(=O)(=O)NCc2ccncc2)c2ccccc12` [CBK268780] was tested, and the “% of control remaining” value was 74.6326.
With `O=C(NCCn1nc2c(cc1=O)CCCCC2)c1ccc(F)cc1` [CBK283279] the “% of control remaining” value was 102.735.
`CCCOc1ccc(C(CC(=O)O)NS(=O)(=O)c2ccc(F)cc2)cc1` (stereo not shown) [CBK287139] was tested, and the “% of control remaining” value was 108.603.
In the case of `Cn1cc(CNC(=O)Nc2cc(C(=O)N3CCOCC3)ccc2Cl)cn1` [CBK307080], the “% of control remaining” value is reported as 69.1389.
For `Cc1cc(COc2nccnc2N2CCN(CCCC#N)CC2)no1` [CBK084198], the “% of control remaining” value was 87.488.
For `COc1ccccc1NC(=S)NCCc1ccc(S(N)(=O)=O)cc1` [CBK266201], the “% of control remaining” value was 108.215.
In the case of `CC(C)n1nccc1NC(=O)CCn1ccnc1-c1ccccc1` [CBK281536], the “% of control remaining” value is reported as 121.052.
In the case of `O=C(NCc1cccnc1)c1cc(S(=O)(=O)N2CCCC2)c(Cl)cc1Cl` [CBK264455], the “% of control remaining” value is reported as 74.6409.
`O=C(O)c1ccc(CSc2nc3ccccc3[nH]2)cc1` [CBK286892] was tested, and the “% of control remaining” value was 64.1159.
In the case of `CCSc1nnc(-c2cccnc2)n1Cc1ccccc1` [CBK076664], the “% of control remaining” value is reported as 108.228.
For `Cn1cc(C2CCCCCN2S(=O)(=O)c2ccc(F)cc2)cn1` (stereo not shown) [CBK284739], the “% of control remaining” value was 85.4006.
With `CC(C)NC(=O)/C(=C/c1c[nH]c2ncccc12)c1ccccc1` [CBK115357] the “% of control remaining” value was 97.1167.
`Cc1nc(NS(=O)(=O)c2ccc(Oc3ccccc3)cc2)sc1C(=O)O` [CBK045566] was tested, and the “% of control remaining” value was 98.1961.
In the case of `COc1cc(CN(C)Cc2cccc3ccccc23)c([N+](=O)[O-])cc1OC` [CBK261850], the “% of control remaining” value is reported as 89.1729.
`Cc1ccc2c(c1)OC1(CCN(C(=O)c3cc4c(C)nn(C)c4s3)CC1)CC2=O` [CBK166037] was tested, and the “% of control remaining” value was 105.177.
In the case of `COc1ncccc1CNC(=O)Cn1ccc(=O)[nH]c1=O` [CBK305596], the “% of control remaining” value is reported as 95.9242.
For `CC(C)C(=O)N1CCC(c2nc3ccc(F)cc3cc2N)CC1` [CBK284656], the “% of control remaining” value was 106.359.
With `O=S(=O)(CCSc1ccc(Cl)cc1)Oc1ccccc1` [CBK261021] the “% of control remaining” value was 88.8272.
With `O=C1NC2(CCc3ccccc31)CCN(C/C=C/c1cccnc1)C2` (stereo not shown) [CBK284622] the “% of control remaining” value was 94.8948.
For `O=C(O)CC(Cc1ccc(Br)cc1)C(=O)Nc1ccccc1` (stereo not shown) [CBK262714], the “% of control remaining” value was 81.8089.
In the case of `COC(=O)C(=O)N1CC[C@H]2NC(=O)N(c3ccc(C(C)C)cc3)C(=O)[C@H]21` [CBK289287], the “% of control remaining” value is reported as 69.9202.
With `Cc1nc(C2CCCN(C(=O)CCn3cccn3)C2)c2sccn12` (stereo not shown) [CBK285234] the “% of control remaining” value was 90.2453.
In the case of `Cc1cc(C)cc(OCC(=O)Nc2ccc3[nH]c(=O)[nH]c3c2)c1` [CBK269676], the “% of control remaining” value is reported as 109.424.
With `CCN(CC)CCNC(=O)c1cccc(Nc2cncc(-c3ccc(O)cc3)n2)c1` [CBK122671] the “% of control remaining” value was 93.7947.
In the case of `O=C(Nc1nc(-c2cccnc2)cs1)c1cccc(N2C(=O)CCC2=O)c1` [CBK287564], the “% of control remaining” value is reported as 108.611.
For `CCn1ncc2c1CCCC2NC1CCN(CC(F)(F)F)C1=O` (stereo not shown) [CBK305206], the “% of control remaining” value was 36.9336.
`FC(F)(F)c1cccc(OCCOc2ccccc2)n1` [CBK115835] was tested, and the “% of control remaining” value was 102.374.
`CC(=O)Nc1cccc(C(=O)N2CCC(OCc3ccccn3)CC2)c1` [CBK307009] was tested, and the “% of control remaining” value was 70.4708.
For `COc1cccc2cc(C(=O)N3CCN(C4CCN(C)CC4)CC3)oc12` [CBK149086], the “% of control remaining” value was 103.543.
In the case of `Cc1ccc(C)c(-c2csc(NS(=O)(=O)c3cccc(C(=O)O)c3)n2)c1` [CBK296696], the “% of control remaining” value is reported as 67.6528.
In the case of `COCCc1noc(CC2CCN(c3ccc(C#N)nc3)CC2)n1` [CBK304094], the “% of control remaining” value is reported as 11.444.
In the case of `O=c1n(-c2cccc(C(F)(F)F)c2)ccn1S(=O)(=O)c1ccc(N2CCOCC2)nc1` [CBK106590], the “% of control remaining” value is reported as 80.976.
`CC(Oc1cccc(Cl)c1)C(=O)Nc1ncccn1` (stereo not shown) [CBK265450] was tested, and the “% of control remaining” value was 98.1759.
`CN(c1cccc(C#N)c1)C1CCN(c2nc3c(cnn3C)c(=O)[nH]2)C1` (stereo not shown) [CBK305462] was tested, and the “% of control remaining” value was 75.085.
With `Cc1cc(SCC(=O)Nc2cccc3ccccc23)nc2c(C)cccc12` [CBK268005] the “% of control remaining” value was 106.835.
With `Cc1cc2c(cc1S(=O)(=O)NCCOc1cccc(C(=O)O)c1)OCC(=O)N2` [CBK299770] the “% of control remaining” value was 113.287.
`CCCn1ccnc1CNc1nc(C(C)(C)C)nc2c1cnn2C` [CBK306739] was tested, and the “% of control remaining” value was 72.1813.

From publication PMC12040169 (PLOS Biology, 2025)
